Experimental findings from PMC4336329 (PLoS ONE, 2015) are described below.

In all, about 310,000 compounds went through this assay and about 2,200 (0.71%) showed an effect of 50% or more. Effects have a minus sign here. Some of the results follow.

The target in the assay is human ether-à-go-go-related gene (hERG) potassium channel (human, UniProt Q12809). The assay is described as follows: primary screen, population patch clamp on CHO cells stably expressing hERG.
Chain of human ether-à-go-go-related gene (hERG) potassium channel (Q12809 whole entry, looked up): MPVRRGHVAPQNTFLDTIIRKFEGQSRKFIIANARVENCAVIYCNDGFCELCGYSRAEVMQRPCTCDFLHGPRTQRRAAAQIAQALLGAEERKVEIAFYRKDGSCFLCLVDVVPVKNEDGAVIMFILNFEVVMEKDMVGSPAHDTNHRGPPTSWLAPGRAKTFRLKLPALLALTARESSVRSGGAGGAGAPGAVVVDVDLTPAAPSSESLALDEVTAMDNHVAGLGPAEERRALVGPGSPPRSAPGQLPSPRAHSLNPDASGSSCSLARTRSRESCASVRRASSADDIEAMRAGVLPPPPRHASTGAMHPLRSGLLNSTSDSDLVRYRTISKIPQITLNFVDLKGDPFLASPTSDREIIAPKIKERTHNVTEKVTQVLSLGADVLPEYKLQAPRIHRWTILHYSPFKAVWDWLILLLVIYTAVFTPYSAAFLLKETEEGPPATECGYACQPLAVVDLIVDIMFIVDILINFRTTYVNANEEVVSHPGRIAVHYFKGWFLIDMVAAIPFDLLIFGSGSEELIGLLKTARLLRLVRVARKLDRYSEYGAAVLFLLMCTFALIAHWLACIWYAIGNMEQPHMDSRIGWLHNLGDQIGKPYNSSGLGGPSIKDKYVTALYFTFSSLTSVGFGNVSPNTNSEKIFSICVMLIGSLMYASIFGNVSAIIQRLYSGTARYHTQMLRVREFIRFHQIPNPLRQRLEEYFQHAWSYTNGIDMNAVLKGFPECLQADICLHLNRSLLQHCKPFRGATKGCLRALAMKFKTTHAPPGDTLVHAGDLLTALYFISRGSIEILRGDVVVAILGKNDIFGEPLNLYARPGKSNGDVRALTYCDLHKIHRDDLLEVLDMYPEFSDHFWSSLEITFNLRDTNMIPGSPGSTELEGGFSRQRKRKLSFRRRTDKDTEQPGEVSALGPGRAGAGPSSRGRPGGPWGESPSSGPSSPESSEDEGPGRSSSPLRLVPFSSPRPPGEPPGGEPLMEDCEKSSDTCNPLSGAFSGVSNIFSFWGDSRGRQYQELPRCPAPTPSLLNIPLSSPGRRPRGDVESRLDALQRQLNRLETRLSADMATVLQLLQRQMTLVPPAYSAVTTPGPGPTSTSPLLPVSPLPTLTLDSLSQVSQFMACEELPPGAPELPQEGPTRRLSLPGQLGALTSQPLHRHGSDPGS
With `Cn1cc(Br)c(NC(=O)/C=C/C(=O)O)n1`, the “hERG current change (%, negative = inhibition) at 1uM” value amounted to 2.68%. Take `FC(F)Sc1ccc(-n2cc(-c3ccccc3)[n+]3c2CCC3)cc1.[Br-]`: the “hERG current change (%, negative = inhibition) at 1uM” value is recorded as -25.9%. As to `Cc1nc(Nc2ccc(C(=O)O)cc2)sc1-c1ccccc1`, the “hERG current change (%, negative = inhibition) at 1uM” value was -3.34%. For `Clc1cccc2sc(N3CCOCC3)nc12`, the “hERG current change (%, negative = inhibition) at 1uM” value came to 8.82%. Turning to `CCOC(=O)CSC1=NC(=O)/C(=C\c2ccc(Cl)cc2)S1`, the “hERG current change (%, negative = inhibition) at 1uM” value was found to be 5.04%.

For `Cc1ccccc1S(=O)c1ccccc1C(=O)O` (centres unmarked), the “hERG current change (%, negative = inhibition) at 1uM” value came to 5.25%. With `Cc1ccc(/C=C/C(=O)O)cc1S(=O)(=O)Nc1ccc2c(c1)OCO2`, the “hERG current change (%, negative = inhibition) at 1uM” value is recorded as 13.4%. On to `Cc1sc2nc(CSCC(=O)Nc3c(Cl)cccc3Cl)[nH]c(=O)c2c1C`, for which the “hERG current change (%, negative = inhibition) at 1uM” value is listed as 11.4%. For `CC(Oc1ccc2c(-c3ccccc3)cc(=O)oc2c1)C(=O)NCCCN1CCOCC1` (centres unmarked), the “hERG current change (%, negative = inhibition) at 1uM” value is reported as -2.36%. As for `Cc1ccc(-c2nnn(CC(=O)N(CC(=O)NC3CCCC3)c3cnc4ccccc4c3)n2)o1`, the figure is 2.75%. As for `S=C(NCc1ccc2c(c1)OCO2)NC1CC1`, the figure is -4.91%; as for `CC(=O)CCC(=O)N1CCCC(CNC(=O)c2ccc(-c3ccccc3)cc2)C1` (centres unmarked), 4.72%. As to `Cc1cc2ccccc2nc1SCC(=O)Nc1nc(-c2ccccc2)cs1`, the “hERG current change (%, negative = inhibition) at 1uM” value is 7.4%.

Take `COC(=O)c1c(NC(=O)CN2C(=O)C(=O)N(CC(C)C)C2=O)sc(C)c1C`: the “hERG current change (%, negative = inhibition) at 1uM” value turned out to be 9.77%. For the compound `C=CCn1c(SCC(=O)Nc2cc(C)nn2-c2ccccc2)nnc1C1CCCCC1`, the “hERG current change (%, negative = inhibition) at 1uM” value came out at 6.74%. For the compound `O=C(CCN1C(=O)C2CCCCC2C1=O)N1CCN(S(=O)(=O)c2c(F)cccc2F)CC1` (centres unmarked), the “hERG current change (%, negative = inhibition) at 1uM” value is on record as -13.5%. For the compound `Fc1c(F)c(C(F)(F)F)c(F)c(F)c1N1CCN(c2ccc3nnc(C(F)(F)F)n3n2)CC1`, the “hERG current change (%, negative = inhibition) at 1uM” value is 11.6%. In the case of `CCCCc1cc(=O)oc2c(C)c(OCC(=O)N3C[C@H]4C[C@@H](C3)c3cccc(=O)n3C4)ccc12`, the “hERG current change (%, negative = inhibition) at 1uM” value is reported as -45.1%. With `CC(=O)c1ccc(Nc2cc(C)nc3ccccc23)cc1`, the “hERG current change (%, negative = inhibition) at 1uM” value is -1.11%.

For `CCOC(=O)N1CCN(C(=O)CSc2nnc(Cn3c(=O)sc4ccccc43)n2C)CC1`, the “hERG current change (%, negative = inhibition) at 1uM” value was found to be 9.65%.

In the case of `Cn1nc(CC(=O)Nc2ncc(Br)s2)c2ccccc2c1=O`, the “hERG current change (%, negative = inhibition) at 1uM” value was 15.3%. For the compound `Cc1ccc(S(=O)(=O)/N=C(/c2ccccc2)N2CCOCC2)c(C)c1`, the “hERG current change (%, negative = inhibition) at 1uM” value is 12.3%. Take `COCCNc1nc2c(c(=O)n(C)c(=O)n2C)n1Cc1cccc(C)c1`: the “hERG current change (%, negative = inhibition) at 1uM” value came out at 6.98%. As for `CCOC(=O)c1cc(NC(=O)c2cccnc2)ccc1N1CCOCC1`, the “hERG current change (%, negative = inhibition) at 1uM” value is given as 6.57%. Take `N#Cc1c(/N=C/c2ccc(O)cc2O)sc2c1C1CCN2CC1`: the “hERG current change (%, negative = inhibition) at 1uM” value came out at 4.04%. On to `COc1ccccc1C1(O)C(=O)Nc2ccccc21` (centres unmarked), for which the “hERG current change (%, negative = inhibition) at 1uM” value was 18.3%. `CCS(=O)(=O)NCCc1ccc(OC)c(OC)c1`: the “hERG current change (%, negative = inhibition) at 1uM” value is recorded as 5.84%. On to `O=C(Nc1cccc(C(=O)Nc2ccc(Cl)cn2)c1)c1ccccc1`, for which the “hERG current change (%, negative = inhibition) at 1uM” value was determined as 12.4%. As for `O=C(NC1CC1)c1nc(Cn2ccc([N+](=O)[O-])n2)no1`, the figure is 10.5%; as for `C[N+]1(CC(=O)Nc2ccccc2Cl)CCN(C(=O)c2cccs2)CC1.[Cl-]`, 7.95%; as for `N#CC1(Cc2ccc(Cl)cc2)c2ccccc2C=CN1C(=O)c1ccccc1` (centres unmarked), -1.53%.

With `O=C(Nc1ccc(Cl)cc1[N+](=O)[O-])c1ccc2c(c1)OCCO2`, the “hERG current change (%, negative = inhibition) at 1uM” value is reported as -12.4%. In the case of `C=CC[C@]12C[C@@H](OC)C(=O)C=C1O[C@@H](c1ccc(OC)c(OC)c1)[C@H]2C`, the “hERG current change (%, negative = inhibition) at 1uM” value stood at 12.1%. Take `COc1ccc(-n2ncc3c(N4CCC(C(N)=O)CC4)ncnc32)cc1`: the “hERG current change (%, negative = inhibition) at 1uM” value is 0.311%. On to `C=CCn1c(SCC(=O)NCCCO)nc2sc3c(c2c1=O)CCC3`, for which the “hERG current change (%, negative = inhibition) at 1uM” value is 9.79%.

`Cc1n[nH]c(C)c1NC(=O)c1cc([N+](=O)[O-])ccc1Cl`: the “hERG current change (%, negative = inhibition) at 1uM” value was determined as 14.6%. In the case of `CCc1cc2cc(C)ccc2nc1SCC(=O)Nc1cc(C)on1`, the “hERG current change (%, negative = inhibition) at 1uM” value is recorded as 4.09%.

Consider `CN1CCN(/C=C(\C#N)S(=O)(=O)c2ccc(Cl)cc2)CC1`, for which the “hERG current change (%, negative = inhibition) at 1uM” value is on record as 6.59%. For the compound `COc1ccccc1NC(=O)CCSc1nc(C)cc(C)n1`, the “hERG current change (%, negative = inhibition) at 1uM” value is on record as 3.73%. In the case of `O=C1OC(c2ccccc2)=C/C1=C/N1CCOCC1` it was 8.29%; in that of `O=C(Nc1ccc2c(c1)OCCO2)c1ccoc1`, 11%; in that of `CCCCC(=O)Nc1cccc(NC(=S)NC(C)=O)c1`, 5.2%. Turning to `Cc1ccc(CNc2ccc(CNc3ncn[nH]3)cc2)cc1`, the “hERG current change (%, negative = inhibition) at 1uM” value was -0.44%. Regarding `Cc1nn2c(=O)cc(CSCC(=O)Nc3ccccc3Cl)nc2s1`, the “hERG current change (%, negative = inhibition) at 1uM” value was determined as 14.3%. In the case of `CC(=O)c1ccc(NC(=O)N2C3CCC2CC(O)(c2cccnc2)C3)cc1` (centres unmarked) it was 8.63%; in that of `O=C(CCl)Nc1cccn2ncnc12`, 14.1%; in that of `COC(=O)Cn1nc(-c2ccccc2)c2ccccc2c1=O`, 16.4%. For `Cc1c(Nc2ccc(C=O)cc2)c(=O)n(-c2ccccc2)n1C`, the “hERG current change (%, negative = inhibition) at 1uM” value was -1.99%.

As for `CN(C(=O)CSc1nnc(CN2CCCC2)n1Cc1ccccc1)c1ccccc1`, the “hERG current change (%, negative = inhibition) at 1uM” value was -4.75%. As for `CNC(=O)c1ccc(NC(=O)CC2SC(N3CCCC3)=NC2=O)cc1` (centres unmarked), the figure is 1.69%; as for `COc1ccc(OC)c(C(=O)NC(CC(N)=O)c2ccc(NCc3ccccn3)c([N+](=O)[O-])c2)c1` (centres unmarked), 12.6%; as for `Cn1c(N2C(=O)CC(Cc3ccccc3)C2=O)nc2ccccc21` (centres unmarked), 7.68%. With `Nc1ccn(CC(=O)NCCc2ccccn2)c(=O)n1`, the “hERG current change (%, negative = inhibition) at 1uM” value came to 12.6%. In the case of `COc1cc(CN2CCNC(=O)C2CC(=O)NCc2csc(C(C)C)n2)cc(OC)c1` (centres unmarked) it was 11.4%; in that of `Cc1ccc(OC(=O)c2cc(=O)c3ccccc3o2)cc1`, 10.3%; in that of `COCCCNS(=O)(=O)c1ccc(S(=O)(=O)N2CCCC2)cc1`, 0.13%. For the compound `O=C(O)c1ccccc1-c1nc2ccccc2c(=O)n1O`, the “hERG current change (%, negative = inhibition) at 1uM” value is listed as 12.4%. Regarding `COc1ccc(/C=N/NC(=O)c2cc3c(ccc4ccccc43)o2)cc1OC`, the “hERG current change (%, negative = inhibition) at 1uM” value is listed as 11.8%.

Regarding `Cc1ccc(C)c(NC(=O)CCC(=O)NNC(=S)Nc2ccccc2)c1`, the “hERG current change (%, negative = inhibition) at 1uM” value is 9.09%. Regarding `COc1ccccc1NC(=O)CCn1c(=S)oc2ccccc21`, the “hERG current change (%, negative = inhibition) at 1uM” value is given as 7.72%. As for `CC(c1ccccc1)N1C(=O)c2ccc(C(=O)NCc3cccnc3)cc2C1=O` (centres unmarked), the figure is 11.6%; as for `Cc1sc2ncnc(SCc3ccc(C(=O)O)cc3)c2c1C`, 2.06%; as for `CC(=O)Nc1ccccc1C(=O)C(=O)Nc1ccc(F)c(Cl)c1`, 13.6%. With `COc1ccc(CNS(=O)(=O)CCNC(=O)c2ccc3c(c2)OCO3)cc1`, the “hERG current change (%, negative = inhibition) at 1uM” value is listed as -0.528%. In the case of `CCN(CC)CCN1C(=O)C2C(C(=O)Nc3ccc(C(C)C)cc3)C3C=CC2(O3)C1C(=O)NC1CCCCC1` (centres unmarked), the “hERG current change (%, negative = inhibition) at 1uM” value was 15.2%.

Turning to `CCOCC(=O)OCC(=O)NC12CC3CC(CC(C3)C1)C2`, the “hERG current change (%, negative = inhibition) at 1uM” value came to 12.1%. `COC(=O)C(N)Cc1ccc(Cl)cc1.Cl` (centres unmarked): the “hERG current change (%, negative = inhibition) at 1uM” value came out at 5.98%. Consider `Cc1ccc(S(=O)(=O)N2CCCCC2)cc1NC(=O)[C@@H]1CCCN1C(=O)c1cccs1`, for which the “hERG current change (%, negative = inhibition) at 1uM” value is given as 6.9%. Turning to `CC(=O)c1cccc(NC(=O)CCNS(=O)(=O)c2cccc(C(C)=O)c2)c1`, the “hERG current change (%, negative = inhibition) at 1uM” value was found to be 6.02%. `COc1ccc(-c2csc(-c3ccc(O)cc3)n2)cc1`: the “hERG current change (%, negative = inhibition) at 1uM” value is listed as 7.34%. Consider `COC(=O)c1ccc(NC(=O)COc2ccccc2OC)cc1`, for which the “hERG current change (%, negative = inhibition) at 1uM” value stood at 11.6%. For the compound `Cc1ccccc1-c1noc(-c2ccccc2C(=O)NCc2ccco2)n1`, the “hERG current change (%, negative = inhibition) at 1uM” value worked out at 11.8%. As for `COc1ccccc1C(=O)NNC(=O)c1cccc(C)c1`, the figure is 17.8%. As for `ClCCOCCCl`, the “hERG current change (%, negative = inhibition) at 1uM” value turned out to be 13%.

Turning to `COc1ccc(CN=C(Nc2ccccc2)SC2CC(=O)N(C)C2=O)cc1` (centres unmarked), the “hERG current change (%, negative = inhibition) at 1uM” value is reported as 4.69%.

For the compound `NC(=O)c1sc2nc(-c3ccccc3)c3c(c2c1N)CCCC3`, the “hERG current change (%, negative = inhibition) at 1uM” value is 13.8%. Consider `Cc1ccc(NC(=O)CSc2nnc(CCCCCNC(=O)OC(C)(C)C)o2)c(C)c1`, for which the “hERG current change (%, negative = inhibition) at 1uM” value is recorded as -15.7%. In the case of `COC(=O)C1=C(C)N(C)C(C)=C(C(=O)OC)C1c1ccncc1` it was 7.38%; in that of `CCOC(=O)c1cc(C#N)c(N2CCN(C(=O)c3ccccc3)CC2)nc1C(F)(F)F`, -0.955%; in that of `CC(=O)N1c2ccc(S(=O)(=O)N3CCC(C(=O)NC4CCCC(C)C4C)CC3)cc2CC1C` (centres unmarked), 7.55%. In the case of `CCOc1ccc(Nc2nc(-c3cccnc3)cs2)cc1` it was 21%; in that of `CCOc1ccc(N(Cc2cc3cc(C)ccc3[nH]c2=O)C(=O)COC)cc1`, 6.75%; in that of `C(#CCN1CCOCC1)COCCCOC(c1ccccc1)c1ccccc1`, 5.38%. In the case of `Cc1ccnc(OC(C(=O)O)C(OCc2ccccc2)(c2ccccc2)c2ccc(C(F)(F)F)cc2)n1` (centres unmarked) it was 16.8%; in that of `CCNC(=S)Nc1ccc(Cc2nc3ccccc3[nH]2)cc1`, 10.2%. In the case of `COc1ccccc1N1CCN(C(=O)c2cccc(N3C(=O)NC4CC3(C)Oc3c(OC)cccc34)c2)CC1` (centres unmarked), the “hERG current change (%, negative = inhibition) at 1uM” value is 9.13%. Turning to `CCOC(=O)N1CCC(n2c(SCC(=O)Nc3ccccc3OC)nc3ccccc3c2=O)CC1`, the “hERG current change (%, negative = inhibition) at 1uM” value is listed as -7.24%. For `CCCN(C(=O)Cn1ncc2c(=O)oc3ccccc3c21)c1cccc(C)c1`, the “hERG current change (%, negative = inhibition) at 1uM” value is reported as 5.92%. For the compound `O=C(NCCO)c1ccc2nc(-c3ccco3)c(-c3ccco3)nc2c1`, the “hERG current change (%, negative = inhibition) at 1uM” value turned out to be 10.2%.
